The source of these data is PubChem BioAssay AID488969 (Vanderbilt High Throughput Screening Facility, 2010).

Each structure is given as a SMILES string. Whole data set: some 110,000 compounds, median “z-score” near -0.1, cut for the highest 2% near 2. Some of the results follow. The source made the active and inactive calls.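 How the source made its calls: active means z-score in the third read window above 3 or below -3; inactive means the rest.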

The target of this test is Metabotropic glutamate receptor 8 (Rattus norvegicus) (UniProt P70579). Nature of the test: rat mGluR8 modulators via GIRK flux, primary screen, cell-based, thallium flux, HTS (AID 488969). To be noted: HEK293 rat mGluR8, GIRK (G protein-gated inwardly rectifying potassium channel) thallium flux, FluoZin2; at 10 µM; stronger effect = higher value; submaximal glutamate (EC20) added with thallium.
UniProt P70579, sequence (P70579 whole entry, looked up): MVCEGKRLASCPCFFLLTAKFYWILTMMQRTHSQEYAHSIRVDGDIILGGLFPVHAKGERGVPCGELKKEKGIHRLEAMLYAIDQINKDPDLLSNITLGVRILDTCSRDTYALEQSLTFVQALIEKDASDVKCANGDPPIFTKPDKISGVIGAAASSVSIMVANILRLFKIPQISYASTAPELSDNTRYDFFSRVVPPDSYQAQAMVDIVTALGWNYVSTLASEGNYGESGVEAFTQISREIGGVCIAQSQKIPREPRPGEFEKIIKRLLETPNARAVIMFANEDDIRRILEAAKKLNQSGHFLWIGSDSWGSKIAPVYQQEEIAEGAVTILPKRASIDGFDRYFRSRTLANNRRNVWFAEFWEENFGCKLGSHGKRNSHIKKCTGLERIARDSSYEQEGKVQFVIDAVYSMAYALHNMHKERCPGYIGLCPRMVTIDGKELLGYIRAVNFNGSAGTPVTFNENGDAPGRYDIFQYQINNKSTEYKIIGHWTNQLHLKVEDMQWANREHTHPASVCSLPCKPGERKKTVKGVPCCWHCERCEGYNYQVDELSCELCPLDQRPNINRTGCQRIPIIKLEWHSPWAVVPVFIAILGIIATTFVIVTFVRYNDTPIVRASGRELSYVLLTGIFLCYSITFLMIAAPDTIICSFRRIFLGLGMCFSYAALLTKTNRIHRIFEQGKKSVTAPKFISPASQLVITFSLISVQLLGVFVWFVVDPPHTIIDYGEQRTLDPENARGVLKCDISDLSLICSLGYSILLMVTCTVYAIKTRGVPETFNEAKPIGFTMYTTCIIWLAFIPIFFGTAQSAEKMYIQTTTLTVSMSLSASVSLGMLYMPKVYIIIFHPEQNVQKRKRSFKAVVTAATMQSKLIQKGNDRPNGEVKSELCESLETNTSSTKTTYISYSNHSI
Turning to `CC1=C([N+](=O)[O-])C(c2cccc(Br)c2)C2=C(N1)c1ccccc1C2=O` (centres undefined), the z-score is -0.467.
The value for `CNC(=O)NC(=O)C(C)OC(=O)CCCSc1nc2ccccc2s1` (centres undefined) was -0.105; that for `CCOc1ccc(CC(=O)Nc2sc(Cc3ccccc3)cc2C(N)=O)cc1OCC` was -0.35.
With `CCCSC1=C(C#N)C(c2ccc(O)c(OC)c2)CC(=O)N1` (centres undefined) the figure was -0.133; with `CCOc1cc(CN2CCN(c3cccc(C(F)(F)F)c3)CC2)ccc1OC`, 0.642.
The value for `CC(C)(C)C1CCc2c(C(=O)N/N=C/c3cccs3)csc2C1` (centres undefined) was active: 3.34.
`Cc1ccc(-c2cc(C(=O)Nc3ccc(S(=O)(=O)Nc4nccs4)cc3)c3ccccc3n2)c(C)c1` had a z-score of 0.00245.
The value for `CC(=O)OC(C(=O)N1CCN(c2ccc(F)cc2)CC1)c1ccccc1` (centres undefined) was -0.163; that for `COC(=O)C1=C(C)NC2=C(C(=O)CC(C)(C)C2)C1c1ccccn1` (centres undefined) was 0.0959.
The value for `NC(=O)c1cccnc1Sc1ccc(Cl)cc1` was -0.431.
With `Cc1ccnc(NS(=O)(=O)c2cnc(Cl)c(Br)c2)c1` the figure was -0.0122; with `COc1cccc(OC)c1OCCCc1c(C)n[nH]c1C`, 0.0759.
In turn, `COc1ccccc1CNC(=O)C1CCC1` came in with a z-score of -0.172.
In turn, `Cc1c(NC(=S)NCc2ccc(F)cc2)cccc1[N+](=O)[O-]` gave a z-score of -0.287.
The value for `COc1ccc(C(=O)N2CCc3cc(OC)c(OC)cc3C2c2cccc([N+](=O)[O-])c2)cc1` (centres undefined) was -0.702.
In turn, `Cn1cccc1Cc1nnc(SCC(=O)Nc2ccc(F)cc2)n1-c1ccc(F)cc1` returned a z-score of -0.84.
The compound `Oc1ccc(CN2CCN(c3ccccc3)CC2)c2cccnc12` yielded a z-score of 0.529.
`O=C(CSc1nnc(-c2ccco2)n1Cc1ccccc1)NC(=O)NCc1ccco1` gave a z-score of 0.635.
Regarding `CC(C)(C)C(C(Oc1ccc(Cl)cc1)n1cncn1)n1nnnc1C(c1cccc(Cl)c1)N1CCCCC1` (centres undefined), the z-score stood at 0.12.
With `COC(=O)c1ccc(NC(=O)CSc2nnc(-c3ccncc3)n2C)cc1` the figure was 0.0349.
With `Cc1nc(Cl)c(C(=O)NC(=O)Nc2cccc(C(F)(F)F)c2)c(C)c1[N+](=O)[O-]` the figure was -0.0667.
Take `Cc1cc(S(=O)(=O)N2CCCC2C(=O)N2CCOCC2)c(C)cc1Cl` (centres undefined): the z-score is -0.177.
The value for `Cn1c(=O)c(C(=O)CN2CCc3ccccc32)c(N)n(Cc2ccccc2)c1=O` was -0.175.
With `O=P(c1ccccc1)(c1ccccc1)C(O)c1ccncc1` (centres undefined) the figure was -0.175; with `CCOc1ccc(C=O)cc1CN1CCCCC1`, 0.00477; with `CCCc1nn2c(=O)cc(O)nc2s1`, -0.103.
With `CCc1c(-c2ccccc2)nc2nc(C)c(C)nn12` the figure was -1.31; with `O=C(/C=C/c1ccco1)NC1=NCCS1`, -0.065; with `COc1ccc(CC(=O)Nc2ccc(C(=O)Nc3ccccc3C(=O)O)cc2)cc1OC`, -0.364.
In the case of `Cc1ccc(C(=O)COC(=O)CCc2ccc(S(=O)(=O)N3CCCCC3)cc2)cc1`, the z-score was -0.561.
As to `CCOC(=O)N1CCC(N2CCN(S(=O)(=O)c3ccc(Cl)cc3)CC2)CC1`, the z-score was -0.145.
The value for `CC(C)(C)c1ccc(O)c(/C=N\O)c1` was -0.323; that for `CN(C(=O)c1ccc(S(=O)(=O)c2cccc(Cl)c2)c([N+](=O)[O-])c1)C1CCCCC1` was -0.539.
The value for `Cc1ccc2cccc(OCCOCCOc3ccccc3Br)c2n1` was -0.0438.
With `CCN1CCN(C(=O)CCc2ccc(S(=O)(=O)NCCc3ccccc3)cc2)CC1` the figure was 0.31.
On to `CC(=O)Nc1ccc(-c2cn3cc(C)ccc3n2)cc1`, for which the z-score amounted to 0.872.
In turn, `O=C(O)Cc1ccc2sc(-c3ccccc3)nc2c1` returned a z-score of -0.00637.
With `Cc1cccc(Nc2nc(NCc3ccco3)c3ccccc3n2)c1` the figure was 0.729; with `COCCNC(=O)c1cn(C)c2ccc(S(=O)(=O)N(C)C3CCCCC3)cc2c1=O`, -0.0633; with `CCN(C(=O)CN1C=NS(=O)(=O)c2ccccc21)c1ccccc1`, -0.347.
`COc1ccccc1NC(=O)NCCCl` came in with a z-score of -0.0596.
The value for `Cc1csc(NC(=O)c2cccc(S(=O)(=O)N3CCCCC3)c2)n1` was -0.0228; that for `CCOC(=O)CSc1nnc(CNc2cccc(Cl)c2)n1-c1ccccc1` was 2.85; that for `COC(=O)Cc1ccc(NC(=O)c2ccc(C)c(C)c2)cc1` was -0.304.
On to `CC(C)[C@H](NS(=O)(=O)c1ccc2c(c1)OCCO2)C(=O)OCC(=O)Nc1cccc(Cl)c1Cl`, for which the z-score is -0.325.
With `CCOC(=O)C1=C(O)C(Nc2nc3ccccc3s2)(C(F)(F)F)N=C1C` (centres undefined) the figure was 0.0247; with `Cc1c(N2C(=O)/C(=C/c3cccc4ccccc34)SC2=S)c(=O)n(-c2ccccc2)n1C`, -0.207.
Compound `Cc1nc(-c2ccccc2)sc1-c1nc(-c2ccncc2)ncc1S(=O)(=O)c1ccccc1` had a z-score of 0.185.
For `CC(/C=C/c1ccccc1)=N/NC(=O)c1cnccn1`, the z-score was 0.287.
With `O=C(CSc1ccccn1)Nc1nncs1` the figure was -0.329.
With `Nc1ccccc1C(=O)N=Nc1[nH]c(N)c2ccccc12`, the z-score was -0.221.
The value for `Cc1ccc(C(=O)Nc2sc(C(=O)N(C)C)c(C)c2C#N)cc1` was 0.0599; that for `CCC(C)c1ccc(S(=O)(=O)N2CCN(C(=O)COc3ccc4c(C)cc(=O)oc4c3)CC2)cc1` (centres undefined) was 0.0307; that for `N#Cc1ccccc1NC(=O)c1cccc(COc2ccc(Cl)cc2Cl)c1` was -0.0216.
With `Cc1cc(F)c(F)c(C(=O)N2CCN(C)CC2)c1Cl` the figure was 0.248; with `COc1ccccc1N1CCN(c2nc3ccccc3nc2C(C#N)C(=O)OC(C)C)CC1` (centres undefined), -0.54.
`NC12CC3CC(C1)CC(O)(C3)C2` had a z-score of -0.0104.
The value for `Cc1cc(C)c2c3c(sc2n1)C(c1ccccc1)C(C#N)=C(N)O3` (centres undefined) was -0.213; that for `COc1ccc(Cc2nc(-c3ccc(Cl)cc3)no2)cc1` was -0.0987.
`Cc1ccccc1CS(=O)(=O)Cc1ccc(C(=O)N2CCOCC2)o1` had a z-score of 0.149.
`CC(C)(C)Cc1nnc(NC(=O)c2cc(-c3ccccc3)nc3ccccc23)s1` registered a z-score of -0.56.
The value for `CN(C)c1oc(-c2ccccc2F)nc1C#N` was -1.32; that for `CC(CC1CC(C)(C)OC1=O)C(=O)Nc1nncs1` (centres undefined) was 0.694.
With `CCC(Oc1ccccc1)C(=O)Nc1ccccn1` (centres undefined) the figure was -0.398.
With `O=C(/C=C/c1ccc(F)cc1)NCCCN1CCN(CCCNC(=O)/C=C/c2ccc(F)cc2)CC1` the figure was -0.123; with `COC(=O)Cn1c(CCC(=O)O)ccc1-c1ccccc1`, -0.232.
`Cc1ccccc1C(=O)c1cccn1CC(=O)NCc1ccc2c(c1)OCO2` yielded a z-score of -0.139.
With `COC(=O)c1cccnc1SCc1ccccc1` the figure was -0.304; with `COc1cccc(N2C(=O)CC(N3CCN(S(=O)(=O)c4ccccc4)CC3)C2=O)c1` (centres undefined), 0.497.
`COc1ccc(Br)cc1C1CC(=O)N2CN(Cc3ccccc3)CSC2=C1C#N` (centres undefined) showed a z-score of 0.187.
In the case of `CCOc1ccc(-n2c(-c3ccco3)n[nH]c2=S)cc1`, the z-score turned out to be 0.316.
The value for `O=C(NC1CCCC1)C1CCN(S(=O)(=O)c2cccc3cccnc23)CC1` was 0.151.
With `O=C(CSc1nnc(Cc2cc(=O)[nH]c(=O)[nH]2)n1-c1ccccc1)N1CCCCC1` the figure was -0.109.
On to `COc1ccc(NC(=O)C2CC(=O)NC(Nc3cccc(C)c3)=N2)cc1` (centres undefined), for which the z-score is -0.0281.
The value for `CC(=O)Nc1nc(-c2ccccc2)ns1` was -0.0207; that for `COc1cc2c(cc1OC)CN(c1ccc([N+](=O)[O-])cc1C#N)CC2` was -0.633.
The value for `COc1ccc(C(=O)N=C2CCC(C#N)=C3c4cc(OC)c(OC)cc4CCN23)cc1` was -0.0841; that for `O=C(Nc1nc2ccccc2n1Cc1ccccc1)c1ccc(COc2ccccc2[N+](=O)[O-])o1` was -0.235.
The value for `CCN(CC)CCNC(=O)c1ccc(Cl)c(S(=O)(=O)Nc2ccc(Cl)cc2)c1` was 1.
On to `Cn1c(=O)cc(SCC(=O)N2CCN(C(=O)c3ccco3)CC2)c2ccccc21`, for which the z-score was found to be 0.419.
With `O=C(CCCc1nc(-c2ccccc2)no1)N1CCOCC1` the figure was 0.382; with `Cc1c(N)cccc1-c1nc2ccccc2[nH]1`, 0.0557.
As for `CC(C)(C)c1cc(NCCCn2ccnc2)n2ncc(-c3ccc(Cl)cc3)c2n1`, the z-score was 0.26.
For the compound `COC(=O)c1c(-c2ccc(C)cc2)csc1NC(=S)NC(=O)c1cc(OC)cc(OC)c1`, the z-score is 0.165.
The value for `Cc1cc(C)c2c(c1)/C(=N/NS(=O)(=O)c1ccccc1)CCC2` was -1.09; that for `COc1ccc(Cl)cc1C(=O)Nn1c(-c2cccs2)nc2ccccc2c1=O` was 0.00602; that for `O=C(NCC(c1cccs1)N1CCOCC1)c1ccc(Cl)s1` (centres undefined) was -0.181.
For `CN=C1SC(CC(=O)Nc2ccc(C(=O)O)cc2)C(=O)N1C` (centres undefined), the z-score was -0.426.
With `O=C(NCc1ccccc1)c1ccc(Br)cc1Br` the figure was -0.339; with `CCCCCOc1ccc(NC(=O)CSc2cccc3cccnc23)cc1`, -0.746; with `CS(=O)(=O)Nc1ccc(C(=O)N2CCCCC2)cc1`, -0.17.
With `CCCCCCOc1ccc(N2C(=O)CC(N3CCC(C(=O)OCC)CC3)C2=O)cc1` (centres undefined) the figure was -0.526.
The value for `CC(CCc1ccccc1)NC(=O)c1ccc(C(=O)NC(C)CCc2ccccc2)cc1` (centres undefined) was 0.659; that for `COc1nc(Cl)cn(-c2ccc(Cl)cc2)c1=O` was -0.155; that for `Cc1cc(C)cc(OCc2ccc(C(=O)O)o2)c1` was -0.00131.
`Cc1cccc(N(C(=O)c2ccc(Cl)cc2)C2CS(=O)(=O)CC2OC(=O)c2ccc(Cl)cc2)c1` (centres undefined) had a z-score of -0.0403.
The value for `CC12CCC(C(=O)NCc3ccc4c(c3)OCO4)(OC1=O)C2(C)C` (centres undefined) was -0.608; that for `COC(=O)CN1C(c2ccc(Cl)cc2)=Nc2ccc(Cl)cc2C1c1ccccc1` (centres undefined) was -0.574; that for `Cc1cccc(N=c2oc3cc(O)ccc3cc2C(N)=O)c1` was 0.0144.
`COc1ccccc1C1C(C(C)=O)=C(C)N=c2s/c(=C\c3cc(OC)c(OC)c(OC)c3)c(=O)n21` (centres undefined) gave a z-score of -0.467.
The value for `COc1ccc(CSc2nncn2C)cc1[N+](=O)[O-]` was -0.262; that for `CCCc1nc(SCC(=O)N2CCCc3ccccc32)c2c(=O)n(C)c(=O)n(C)c2n1` was -1.35; that for `COc1cc2c(cc1OC)CN(Cc1ccc(C)s1)CC2` was -0.241.
With `O=C(CN1CCN(S(=O)(=O)c2ccccc2)CC1)Nc1ccc(Cl)c(Cl)c1` the figure was -0.271; with `CCCc1[nH]nc2c1C(c1cn[nH]c1-c1ccc(F)cc1)C(C#N)=C(N)O2` (centres undefined), 0.897; with `O=C(CCCSc1nc2ccccc2[nH]1)Nc1ccccc1`, 0.433.
The value for `COCCn1c(Cc2ccccc2)nnc1SCc1ccc([N+](=O)[O-])cc1` was 0.0809; that for `C1=Nc2c(NCc3ccccc3)ncnc2Oc2ccccc21` was -0.9; that for `COc1ccc(Sc2nc3ccccc3n3c(C(F)(F)F)nnc23)cc1` was 0.0147.
